The chains are these.
B1: LINE1-mini (parent)
chain: GGCAGAGCUCAACACAGCGUGGCAAAGUGGCUGUGGCUAGACUGCC

The values that follow come from the RNAGym collection of RNA variant scans (doi:10.7554/elife.90254).

Read counts are not given, so values of variants with three or more changes are uncertain.

In the data set the parent is B1. Briefly: self-cleavage, relative activity (ratio to wild type); higher = more cleavage; in vitro, sequencing; the parent is a self-cleaving ribozyme.
In the case of GUCAGAGCUCAACGCAGCGUGGCAAAGGGGCUGUGGGUAGACUGCC [G2U A14G U28G C37G], the self-cleavage amounted to 0.03.

Consider GUCAGAGCUCAACGCAGCGUGGCAAAGUGGCUGUGGCUAGACUUCC [G2U A14G G44U], for which the self-cleavage was 0.

In the case of GUCAGAGCUCCACACAGCGUGGCAAAGUGGCUGUGGCCAGACUUCC [G2U A11C U38C G44U], the self-cleavage was found to be 0.

As to GUCCGAGCUGACUACAGCGUUGCAAAGUGGCUGUGGCUAGACUGCC [G2U A4C C10G A12C C13U G21U], the self-cleavage was determined as 0.01.

On to GCCAGAGCUCAACACAGCGUGGCAAAGUGGCUGUGGCAAGAUUGCC [G2C U38A C42U], for which the self-cleavage was found to be 0.09.

Take GUCGGAGCUCAACACAGCGUCGCAAAGUGGCUGUGGCUAGACUUCU [G2U A4G G21C G44U C46U]: the self-cleavage came out at 0.06.

Regarding GUCAGGGCCUAAUACAGCGUGGCAAAGUGACUGUGGCUAGAAUGCC [G2U A6G U9C C10U C13U G30A C42A], the self-cleavage was 0.04.

Regarding GUCAGAGCUCCACACAGCGGGGCAAAGUAGGUGUGGCUAGACUGCC [G2U A11C U20G G29A C31G], the self-cleavage was determined as 0.

On to GCCAGAGCUCAACACAGCGUGGCAAAGACGCUGUGGCUAGACUGCC [G2C U28A G29C], for which the self-cleavage amounted to 0.1.

For GUCCGAGCCAAACACAGCGUGGCAACGUGGCUGUGCCUAGACUGCC [G2U A4C U9C C10A A26C G36C], the self-cleavage amounted to 0.

As for GUCAGCGCUCAACACAGCGGGGCAAAGCGGCUGUGGCUCGACUGCC [G2U A6C U20G U28C A39C], the self-cleavage turned out to be 0.01.

Turning to GUGAUAGCUCAACACAGCGUGGCAAAGUGGCUGUGGCUAGAAUGUC [G2U C3G G5U C42A C45U], the self-cleavage worked out at 0.07.

With GUAAGAGCUCAACACAGAGUGGCAAAGUGGCUGUGGCUAGACUGCC [G2U C3A C18A], the self-cleavage stood at 0.23.

With GUUAGAAGUCAAUACAGCGUGGCAAAGUGGCUGUGCCUAGACUGCC [G2U C3U G7A C8G C13U G36C], the self-cleavage came out at 0.12.

In the case of GUCCGAGCUCAACACAGCGUGGCAAAGUGGCUGUGGCUAGAGUGCC [G2U A4C C42G], the self-cleavage was 0.01.

With GUUAGAAGUCAACACAGCGUGGCCAAGUGGCUGUGGCUAGACUACC [G2U C3U G7A C8G A24C G44A], the self-cleavage amounted to 0.04.

In the case of GUCAGAGCUCAACACAGCGUGGCAUAGUGGCUGUGGCUAGACUGGU [G2U A25U C45G C46U], the self-cleavage came to 0.27.

With GUCAGAGCUCACCAUAGCGUAGCAUAUUGGCUGUGGCUAGACUGCC [G2U A12C C15U G21A A25U G27U], the self-cleavage worked out at 0.01.

In the case of GUCAGCUCUCAACACAGCGUGGCAAAGUGGCUGUGGCUUGACUGCC [G2U A6C G7U A39U], the self-cleavage worked out at 0.03.

For GUCUGAGCUCAACACAUCGUGGCAAAGUGGCUGUGGCUAGACUGCC [G2U A4U G17U], the self-cleavage was determined as 0.02.

As to GCCAGAGCUCAACACAGCGUGGCAAAGAAGCUGUGGCUAGACUUCC [G2C U28A G29A G44U], the self-cleavage was found to be 0.03.

For the variant GUCAGAGCUCCACACUGCGUGGCAAGGUGCCUGCGGCUAUACUGCC [G2U A11C A16U A26G G30C U34C G40U], the self-cleavage was determined as 0.01.

With GUAGGAGCUCAAAACAGCGUGGCAAAGUGGCUGUGGCUAGACUGCC [G2U C3A A4G C13A], the self-cleavage stood at 0.04.

Regarding GUCAGAGCUCAGCACCGCGUGGCAAAGUGGAUGAGUCUAGACUGCC [G2U A12G A16C C31A U34A G36U], the self-cleavage came out at 0.

Regarding GCCAGAGCGCAACACUGCGUGGCAAAGUGGCUGCGGCUAGACUGCC [G2C U9G A16U U34C], the self-cleavage is 0.02.

In the case of GUCAGCGCUCAUCACAGCGUGGCAAAGUGGCUGUGGCUAGACUGCC [G2U A6C A12U], the self-cleavage turned out to be 0.04.

Consider GUUAGAGCUCAACACAGCGUGGCUAAGUGGCUGUGGCUAGACUGCC [G2U C3U A24U], for which the self-cleavage is 0.35.

On to GUCAGAGCUCAACACAGCGUGGCUAAGUGGCUGUGGCUAGAAUGCC [G2U A24U C42A], for which the self-cleavage worked out at 0.02.

Take GUCAGCUCUCAACACAGCGCGGAAAAAUGGCUGUGGCUAGACUGCC [G2U A6C G7U U20C C23A G27A]: the self-cleavage amounted to 0.02.

With GUCAGUGCUCAACACAGCGUGUCAAAUUGGCUGUGGCUAGACUGCC [G2U A6U G22U G27U], the self-cleavage is 0.07.

On to GUCAGAGCUCGACUCAGCGUGGCAAAAUGGCUGUGGCUAGACUGCC [G2U A11G A14U G27A], for which the self-cleavage was 0.01.

Regarding GUCGGAGCUCAACACAGCGUGGCAAAGUGGCUGUGGCUAGACGGCC [G2U A4G U43G], the self-cleavage turned out to be 0.15.

On to GUCAGAGCUCAGAACAGGUUGACAAAGUGGCUGUGGCUAGACUGCC [G2U A12G C13A C18G G19U G22A], for which the self-cleavage was found to be 0.03.

GUAAGAGCUCAACACAGCGUGGGAAAGUGGCUGUGGCUAGACUGCC [G2U C3A C23G]: the self-cleavage was found to be 0.2.

Regarding GUCAGAGCUCAACGCCGCGUGGCAAAGUGGCUUUGGCCAGACUGCC [G2U A14G A16C G33U U38C], the self-cleavage was determined as 0.

For GUUAAAGCUCAACACAGCGUGGCAAAGUGGCUGUGGCAAGACUGCC [G2U C3U G5A U38A], the self-cleavage amounted to 0.08.

With GUCCGAGAUCAACACUGCGUGGCAAUGUGGCUGUGGCUAGACUGCC [G2U A4C C8A A16U A26U], the self-cleavage amounted to 0.07.

As for GUCAGCGCUCAACACAGCGUGGCAAAGUGGCUGUGGGUAGACUGCC [G2U A6C C37G], the self-cleavage is 0.04.

As to GUCAGCGCUCAACACAGCGUGGCAAAGUGGCUGUGGAUAGACUGCC [G2U A6C C37A], the self-cleavage came out at 0.1.

For GCCAGAGCUCAACACAGCGCGGCAAAGUGACUGUGGCUAGACUGCC [G2C U20C G30A], the self-cleavage was found to be 0.12.

As for GUUAGAGCUCAACACACCGAGGCAAAGUGGCUGUGGCUAGACUGCC [G2U C3U G17C U20A], the self-cleavage was 0.13.

As to GCCAGAGCUCAACACAGCGUGGCAAAGUGGCUGGGGCUAGACUUCC [G2C U34G G44U], the self-cleavage is 0.02.

Take GUAAGACCCCCUCACAGCGUGGCAAAGUGGCUGUGGCUCUACUGCC [G2U C3A G7C U9C A11C A12U A39C G40U]: the self-cleavage was 0.01.

GUCUGAGCUCAACAGAGCGUGGCAAAGUGGCUGUGGCUAGACUGCC [G2U A4U C15G]: the self-cleavage was determined as 0.01.

As to GUAAGAGCUAAACACAGCGUGCCAAAAUGGCUGUGGCUAGACUGCC [G2U C3A C10A G22C G27A], the self-cleavage was 0.03.

For GCCAGAGCUCAACACAGCGUGGCAAAGGGGCUGUGCCUAGACUGCC [G2C U28G G36C], the self-cleavage turned out to be 0.08.

With GUCAGAGCUCCACACAGCGUGGUAAAGUGGCUGCGGCUAGACUGCC [G2U A11C C23U U34C], the self-cleavage is 0.01.

In the case of GUAAGAGCUCAACGCAGCGUGGCAAAGUGGCUGUGGCUAGACUGCC [G2U C3A A14G], the self-cleavage was found to be 0.86.

As for GUGAGAGCUCAACACAGCGUGGCAAAGUAGUUGUGUCUCGACUGCC [G2U C3G G29A C31U G36U A39C], the self-cleavage was 0.02.

In the case of GCCAGAGCUCAACACAGCGAGGCAAAGUGGCUGUGGCUAUACUGGC [G2C U20A G40U C45G], the self-cleavage amounted to 0.03.

In the case of GUCAGUGCUCAGUACAGCGCGGCAAAGCGGCAGUGGCUAGACUGCU [G2U A6U A12G C13U U20C U28C U32A C46U], the self-cleavage came out at 0.01.

On to GUCAGAGCUCGAAACAGCGUGGCAAAGUGGCUGUGGCUAGACUGCC [G2U A11G C13A], for which the self-cleavage came out at 0.03.

For the variant GUCAGAGCUCAACACAGCGUGGCAGAGCGGCUGUGGCUAGACUGCC [G2U A25G U28C], the self-cleavage stood at 0.02.

Turning to GUAAGAGCUGAACUCAGCGUGGCAAAGUGGCUGGGGCUAGACUGCC [G2U C3A C10G A14U U34G], the self-cleavage turned out to be 0.03.

Regarding GUCAGAGCUCAACACAGCGUGGCACAGUUGCUGUGGCUAGACAGCC [G2U A25C G29U U43A], the self-cleavage was determined as 0.11.

Consider GUACGAGCUCAACACAGCGUGGAAAAGUGACUUUGGCUAGACUGGC [G2U C3A A4C C23A G30A G33U C45G], for which the self-cleavage was found to be 0.03.
